For 36 sequences, thermal melting temperature results are on record in the supplement of paper PMC7726561.

To fix the notation:
B1: unnamed (peptide)
chain: FQTEVGKQL
B2: unnamed (peptide)
chain: YLSSLQPRL
B3: unnamed (peptide)
chain: LLIDDEYKV
B4: unnamed (peptide)
chain: WLDETLAQV
B5: unnamed (peptide)
chain: SLFPGQVVI
B6: unnamed (peptide)
chain: YLMEVTHDL
B7: unnamed (peptide)
chain: KLLEESIANL
B8: unnamed (peptide)
chain: KVIDYVPGI
B9: unnamed (peptide)
chain: VLLEPFIHQV
B10: unnamed (peptide)
chain: TLYEAVREV
B11: unnamed (peptide)
chain: TLNDREYQL
B12: unnamed (peptide)
chain: GLDPNKPPEL
B13: unnamed (peptide)
chain: TLLGHEFVL
B14: unnamed (peptide)
chain: SLLPEGPPAI
B15: unnamed (peptide)
chain: KLLETELLQEI
B16: unnamed (peptide)
chain: SLFPGKLEV
B17: unnamed (peptide)
chain: GLWRGEEVTL
B18: unnamed (peptide)
chain: QLVEQVEQI
B19: unnamed (peptide)
chain: LLSAEPVPA
B20: unnamed (peptide)
chain: TLLTFFHEL
B21: unnamed (peptide)
chain: IIIPEIQKV
B22: unnamed (peptide)
chain: TLHSIIISL
B23: unnamed (peptide)
chain: SLFAGGMLRV
B24: unnamed (peptide)
chain: KLSAEKVEI
B25: unnamed (peptide)
chain: ALLDKLYAL
B26: unnamed (peptide)
chain: RLQEDPPAGV
B27: unnamed (peptide)
chain: ILLDSGLEKA
B28: unnamed (peptide)
chain: KLDDLTQDLTV
B29: unnamed (peptide)
chain: KLSEIPLTL
B30: unnamed (peptide)
chain: LLLDQLTKA
B31: unnamed (peptide)
chain: RLDEAFDFV
B32: unnamed (peptide)
chain: LLTDYILKV
B33: unnamed (peptide)
chain: ILEENIPVL
B34: unnamed (peptide)
chain: RLPDDDPTAV
B35: unnamed (peptide)
chain: IQVTKVTQV
B36: unnamed (peptide)
chain: NMVDIIHSV

Whole data set: some 1,100 sequences, median “thermal melting temperature (Tm) of peptide-HLA complex” near 58, cut for the lowest 2% near 42. Some of the results follow.
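Also: cell lysates heated 10 min at 37–73 °C, remaining pHLA pulled down with pan-class I antibody, peptides quantified by DIA-MS versus 37 °C, Tm where half the complex is lost.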

In the test the target is HLA-A*02:01. Briefly: thermal melting temperature (Tm) of peptide-HLA complex; higher = more thermostable pHLA complex. To be noted: C1R-A*02:01.
The sequence B1 displayed a thermal melting temperature of 47.6 °C.
B2 registered a thermal melting temperature of 61.4 °C.
With B3, the thermal melting temperature turned out to be 54.9 °C.
With B4 the figure was 59.3 °C; with B5, 52.3 °C; with B6, 65.2 °C.
The sequence B7 returned a thermal melting temperature of 48.1 °C.
Consider B8, for which the thermal melting temperature was found to be 58.8 °C.
Regarding B9, the thermal melting temperature stood at 55.9 °C.
B10: the thermal melting temperature stood at 61.6 °C.
For the sequence B11, the thermal melting temperature came to 58.4 °C.
With B12 the figure was 61 °C; with B13, 60.4 °C; with B14, 57.8 °C.
In the case of B15, the thermal melting temperature was found to be 60.2 °C.
The sequence B16 yielded a thermal melting temperature of 60.4 °C.
With B17 the figure was 50.7 °C; with B18, 43.7 °C; with B19, 59.3 °C.
For the sequence B20, the thermal melting temperature turned out to be 57.4 °C.
B21 came in with a thermal melting temperature of 51 °C.
B22 displayed a thermal melting temperature of 56.7 °C.
In turn, B23 had a thermal melting temperature of 57.2 °C.
Take B24: the thermal melting temperature was determined as 54.9 °C.
B25 yielded a thermal melting temperature of 64.9 °C.
In turn, B26 yielded a thermal melting temperature of 60.9 °C.
B27 registered a thermal melting temperature of 46.7 °C.
B28 came in with a thermal melting temperature of 60.6 °C.
Regarding B29, the thermal melting temperature is 58.5 °C.
In turn, B30 registered a thermal melting temperature of 57.6 °C.
The sequence B31 showed a thermal melting temperature of 57 °C.
B32 displayed a thermal melting temperature of 58.8 °C.
For B33, the thermal melting temperature amounted to 51.6 °C.
Consider B34, for which the thermal melting temperature came out at 55.4 °C.
With B35 the figure was 53.7 °C; with B36, 57.2 °C.
